± gives the standard deviation of the averaged measurements. In all, about 4,100 sequences were measured (“arbitrary fluorescence units”: median about 780, highest 2% from about 22,000 on). The list shows a part of the results.

In this experiment the target is T1, ETS1 (UniProt P14921).
T1 sequence: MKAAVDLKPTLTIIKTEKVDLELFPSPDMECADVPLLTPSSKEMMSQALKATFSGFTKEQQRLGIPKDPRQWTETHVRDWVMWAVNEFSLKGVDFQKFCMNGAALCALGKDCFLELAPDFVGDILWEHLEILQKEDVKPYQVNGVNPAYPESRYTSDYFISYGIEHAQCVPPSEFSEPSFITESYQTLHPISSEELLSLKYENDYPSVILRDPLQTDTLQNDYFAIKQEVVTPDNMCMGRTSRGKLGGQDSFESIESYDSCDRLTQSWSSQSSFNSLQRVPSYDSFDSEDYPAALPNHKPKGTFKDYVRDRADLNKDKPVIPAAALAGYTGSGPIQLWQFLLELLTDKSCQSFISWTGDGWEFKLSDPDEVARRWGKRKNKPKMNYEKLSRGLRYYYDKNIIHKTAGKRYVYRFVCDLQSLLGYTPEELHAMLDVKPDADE
Briefly: ETS1 binding intensity (PBM fluorescence), ETS1 alone (arbitrary fluorescence units); higher = stronger binding. The settings on record: ETS1 concentration 1 nM; RUNX1 concentration 0 nM. The method in brief: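 Double-stranded Agilent 4 × 180k arrays held 36-bp genomic probes whose RUNX1 partner site was mutated, and these were incubated with 1 nM full-length recombinant human ETS1 in the absence of RUNX1 under standard PBM protocols. Bound protein was labelled with anti-ETS1 antibody (Cell Signaling Technology 14069) plus an Alexa488-conjugated secondary and read on a GenePix 4400A, with four spots printed per sequence. Binding level is reported as raw spot fluorescence intensity summarised over replicate spots.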
Turning to AGCCTGAACTGAGGAAACTACAGCCCCAGATTGCCT, the ETS1 binding intensity is 501.

On to CAGCAATACGACAAGCTGTTTAAGGATGTTCCCTTG, for which the ETS1 binding intensity was 789. In the case of GGTGGCCGCCGGAAGTGTGACCTCGGGAGGGGAGTG, the ETS1 binding intensity worked out at 9890. The sequence GGTCTGGAGGATGTTTGCAGCTGCTGTAGGTGGTGG returned an ETS1 binding intensity of 504. Consider GGCGTGCTTTCGGCCCCGGCGCAGCCGGATCTGGCA, for which the ETS1 binding intensity is 329. The same measure for GGGCAGGCCGGATGTGGGAGACCCCAAAGCCCAAGG: 11000. GGGATCCTTCCGCTCCGGGTTAACCCCGAGCGCGCC came in with an ETS1 binding intensity of 5110. TACAGGAACTTCCTGCGCGGCTGCTGTCGTTGCGAG: the ETS1 binding intensity came out at 7850. In turn, ATCTTAAGTGTTTCCTGACACCAGAAATCCCCAAAC came in with an ETS1 binding intensity of 1600. AGGGTGTACTCGGAAGTTTCGAGTGGCTGCTTGGTT registered an ETS1 binding intensity of 414. The same measure for GGAGGGGGAAGTGGGCGGCTCAGCGCCCGCCATCTT: 877; for GTTTCCACTTCCTGCTGTGCAGCAGTACCAGCAAGA: 19700; for CGAAGCCGGAAATGCTGAGTGCGCGGGGCCGAACGT: 12500.

GTAAATAAAGAGGAAGTCCCTATGAGGGGGATGGGG: the ETS1 binding intensity came to 1570. Consider CTGGCCCCTTCCTGCACCTGGGCTGTCCCCAGAGCA, for which the ETS1 binding intensity turned out to be 2050. To GGTCACGTGTCCACGGGGACCGGAAGTGGCGCCCGG belongs 14400; to ACCTCTTCGGCGTCACTGGGAGCCCGACGGAAAACT, 429; to GGGGACCGGAAAGGGAGGGGTGGGCCGTAGGCGCCG, 4430. To CTTAAAACCCCAACACAATAACACCAGAGGAAATGA belongs 526; to ACAGTACACGCACACCTAGCTTTCCTGTCTGCAGAG, 564.

As to GCTCGTTTGGGGTTACTGACATCCGGCCTTCATTTC, the ETS1 binding intensity was found to be 5140. CCGCTGACATCCGCTTGGCCTGCAGCTTCTTTCTGT had an ETS1 binding intensity of 12100. GTAGAGACAGGAAATTATGTTGGATTTCTTGCAGAA returned an ETS1 binding intensity of 3700.

The sequence CAGAAAAGGCAGGAAGTGGTACAAACCCCAAAAGGC returned an ETS1 binding intensity of 9240.

In turn, AAAGTATCTTCTGAGGTGAATCGGAAACAAAACTCA showed an ETS1 binding intensity of 509.

For the sequence GCAACAGGAAGGACCAAGTCCCCTCCCGAAATTTTA, the ETS1 binding intensity was determined as 1790. To CGAGTCAGGAAATCACAGCTCTGAGGGTGGGCTCCT belongs 664; to TAGCCACGAACCGGAAACGTTAAACTACAGCTCCGT, 12600; to CGGCGGAAGGCGGACTCTCGCGGGAGCTACAAAGAG, 466. Sequence TATTTCCTCCTGCAGGTCTGTTCTTTGCCGCCTGAA registered an ETS1 binding intensity of 11900. GCCTTCGGTGTGGACTCGCATCATTTCCTCTTTCTG showed an ETS1 binding intensity of 847. In the case of ACGTCTGTTTCCTGTGATTGAAATCGCAAGAAGAAG, the ETS1 binding intensity amounted to 9820. On to ATCTTCCGTAGCAGTCAGGTGTTTTGGGGTTTGCAG, for which the ETS1 binding intensity is 1690. Turning to GGCCGCGCTGGGGTGTGTACAGATTTCCGCGGCGCC, the ETS1 binding intensity stood at 381.

GCTGCCTTGAGGGCACGGTAGTTCCGCCGGGTCTGG: the ETS1 binding intensity came out at 314. Regarding GCCGGAAGCCACGCAGGGCCACGTCTGGGGTTCTGA, the ETS1 binding intensity stood at 1040. Consider CCCCGAGGTCGTCGCGCGAACTCCTTCCGCGCGTCG, for which the ETS1 binding intensity turned out to be 362. In turn, CTGGGCCGTAGTTCAGGTGGCTGGCGGAAACGGGAG yielded an ETS1 binding intensity of 510. In turn, GCTCGCCGCGCGTTCGACAACCCCATCCTGCGCTCG yielded an ETS1 binding intensity of 351. CTCCATCTCCCAGAAGCCCTCCTTCACTTCCGGCTC had an ETS1 binding intensity of 2020. TCCAAATCACATGAAATAAGCAAGGGAAGTGGCAGC yielded an ETS1 binding intensity of 544. With GACCATGGAGCTGCAGCCGAGTTCCGTGTCCACTTC, the ETS1 binding intensity stood at 317. TTCTTTGGTCAACCCCAAGCCTCTTCCGCGTCTCGC yielded an ETS1 binding intensity of 445. As for AACCATTACAGGATGTGAGATTCAAAGCACTAACAG, the ETS1 binding intensity worked out at 5220. To ACGCCATTCGGTGGCACGGGGATGTGTAAAAATCGT belongs 343; to CCGCCGCGCGCCGGATGCTAAGACCTCGATTTCCCC, 1420. In turn, TAATACAGTTCTGGTTAAAGGAAGCTCATTTTTTTC came in with an ETS1 binding intensity of 488. Sequence TGGCCGGAATCTCCGGACTGAAAATCCGCTGTCCTA gave an ETS1 binding intensity of 475. In turn, TGAGGAAGTGTAAGTCACAATAAGAAGTCACATATA registered an ETS1 binding intensity of 552. Sequence AGCAGCTTCCCGTCTGAGGTGAAGACAGCCCTCAGC came in with an ETS1 binding intensity of 7140. CCCTCATCTTCCTGCTTCAGGCAGCTGTGATTTACC had an ETS1 binding intensity of 2890. Consider ATGGATGGGGTTGCTTGCGTGAGGAAATACTTGATG, for which the ETS1 binding intensity was 524. TACCCCGCCGGAAGCCCCCTGCTCTCTGGGAACCGG: the ETS1 binding intensity was found to be 1900.

On to ACTGAGGGCTACCTCCCCCACACCACTTCCGCCAAG, for which the ETS1 binding intensity is 2040. The same measure for ACTGTTATTGTAGTTTTTGGGGACTTCCTCTTTGTC: 871; for TGACAGACCCGGAAATAAGAGGAGACAACACACTTG: 4440.

On to AAACAAAGTCAAAGCACAGCACTTCCTGCATTCTGG, for which the ETS1 binding intensity worked out at 2890. Sequence ACGTACGGGATGTGGGAGGTTTGTTTTGACAACACC returned an ETS1 binding intensity of 646. On to AATGTAGGAAATTCCACTGCATAATTTGGGGTAGTG, for which the ETS1 binding intensity is 391 ± 4.5. Sequence GGGCAATGTCGTCGCCAGACCATCCTGTCACTTAGG gave an ETS1 binding intensity of 520.

TAACCCTGTTTTATCACATCATTTCCTGCTGAAGAG gave an ETS1 binding intensity of 2800. The sequence TCAAAGAGGCAGTGCTTTATAATTTCCTCTTGACTG came in with an ETS1 binding intensity of 655. The sequence TGACGGTGAGCGCTTCAGGTCAGGACCGGAAGTGCC showed an ETS1 binding intensity of 7850. To CACCCTCAACTTCCTGACCCATAAACCCCAAGCTAT belongs 5730. GATACTCTTCCTGTCATCCCATCCCCTCAGCCTTAG: the ETS1 binding intensity turned out to be 6330.

For the sequence ACTGGGGCTGAGACACAGAAGGGAAAGGATGTGACC, the ETS1 binding intensity was 438. To ACAGTGTGCTTGTGTTTTCTGTGCATCACTTCCCTG belongs 439; to TTTACAGGAAATTACAGGGGTTAAACCAAACCCCAA, 2570; to GTCTTGTTTTGGGGTGTAAGCACTTCCCGCTAAGCA, 665.

In turn, CGGCAGCTTGCGCTTAGCCGTTCTTTCCGCCCAGTT gave an ETS1 binding intensity of 314. The same measure for GGTAAACCATGCGCTCGATGGGGAGGATGTGGAGAT: 389; for AATATGAGGGCTGAGGCGATGGTTTCCTGGGGTGCT: 382. The same measure for CGTTTCCTCGCGGGCCGGCGCACCTCGCGATCACTT: 2090. The same measure for GCCAGGCGGGCGCTGATCCCCAGAACATCCGGGAGC: 1170; for AGGCTGCGACCAGCGGGCGGAGGAAGGGGGTGGCCT: 452.

For ATTCGTTTCGGCAGCGCAGCAGCCACCGGACAAGCA, the ETS1 binding intensity worked out at 377. Sequence GGCCCACATCCTTATGACTCAGCAGATGCGCCTGTC registered an ETS1 binding intensity of 1580. Sequence GCTCCGCTTCCGGGAGGCGGGGCTTCTCCGGGTTCC displayed an ETS1 binding intensity of 9540. The sequence GAGGTGCTCAGAGCCTCCCTTGACAGGAAACAAGAA registered an ETS1 binding intensity of 728. Sequence TCATGTATCACTGCAACACCGGATCCTTAGCCACTG registered an ETS1 binding intensity of 412 ± 9.2.

The record behind these values is the supplement of paper PMC10681739.
